Experimental data from PMC4336329 (PLoS ONE, 2015).
About 2,200 (0.71%) of roughly 310,000 compounds showed an effect of 50% or more. Effects have a minus sign here. This is one part of the list.

Target: human ether-à-go-go-related gene (hERG) potassium channel (human, UniProt Q12809)
Test: primary screen, population patch clamp on CHO cells stably expressing hERG

Sequence of human ether-à-go-go-related gene (hERG) potassium channel (Q12809 whole entry, looked up): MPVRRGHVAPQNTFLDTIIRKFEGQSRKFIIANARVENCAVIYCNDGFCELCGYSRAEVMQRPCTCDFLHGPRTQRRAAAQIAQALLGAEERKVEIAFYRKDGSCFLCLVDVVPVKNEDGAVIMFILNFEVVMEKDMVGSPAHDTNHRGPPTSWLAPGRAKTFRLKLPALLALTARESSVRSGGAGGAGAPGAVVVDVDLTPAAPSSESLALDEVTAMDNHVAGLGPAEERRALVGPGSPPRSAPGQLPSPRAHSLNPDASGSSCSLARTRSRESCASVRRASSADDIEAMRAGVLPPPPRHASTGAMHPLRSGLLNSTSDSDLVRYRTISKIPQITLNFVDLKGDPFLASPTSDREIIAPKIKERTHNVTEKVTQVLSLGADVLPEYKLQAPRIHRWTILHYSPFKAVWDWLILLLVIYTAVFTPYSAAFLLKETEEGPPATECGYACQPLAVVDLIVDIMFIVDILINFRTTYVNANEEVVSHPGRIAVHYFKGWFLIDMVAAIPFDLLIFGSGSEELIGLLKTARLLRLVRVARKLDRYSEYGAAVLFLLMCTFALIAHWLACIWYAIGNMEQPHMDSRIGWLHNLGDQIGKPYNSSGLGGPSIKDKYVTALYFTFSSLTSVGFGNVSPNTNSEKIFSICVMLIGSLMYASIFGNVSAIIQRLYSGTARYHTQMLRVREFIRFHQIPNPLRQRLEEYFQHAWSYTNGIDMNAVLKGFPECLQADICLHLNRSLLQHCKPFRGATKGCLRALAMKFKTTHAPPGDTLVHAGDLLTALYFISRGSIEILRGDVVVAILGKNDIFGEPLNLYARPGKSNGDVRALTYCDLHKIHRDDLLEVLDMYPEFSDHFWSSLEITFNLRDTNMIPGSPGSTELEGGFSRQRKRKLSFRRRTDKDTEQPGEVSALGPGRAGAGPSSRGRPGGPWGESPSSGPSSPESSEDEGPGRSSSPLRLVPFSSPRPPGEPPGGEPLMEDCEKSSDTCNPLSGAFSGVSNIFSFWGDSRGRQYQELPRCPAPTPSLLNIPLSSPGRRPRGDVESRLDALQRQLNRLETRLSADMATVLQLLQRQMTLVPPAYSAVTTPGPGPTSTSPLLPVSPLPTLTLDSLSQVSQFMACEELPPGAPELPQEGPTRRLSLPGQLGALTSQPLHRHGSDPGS

| SMILES | hERG current change (%, negative = inhibition) at 1uM [%] |
| --- | --- |
| COc1ccc(CCNC(=O)c2ccc(Cl)c(S(=O)(=O)N(C)c3ccccc3)c2)cc1 | 7.95 |
| COc1ccc(/C=C(/NC(=O)c2ccco2)C(=O)NCCc2ccccc2)cc1 | -7.33 |
| COc1cc(NC(=O)c2ccco2)ccc1NC(=O)C(C)C | -0.252 |
| CC(=O)Nc1cccc(Cl)c1C(=O)O | 2.29 |
| Br.CN1CCc2cc3c(c4c2[C@H]1[C@H](O)c1ccccc1-4)OCO3 | 6.95 |
| CN(C(=O)CSc1nc2cc([N+](=O)[O-])ccc2n1-c1ccc(F)cc1)C1CCS(=O)(=O)C1 (stereo not shown) | 8.63 |
| C=CCn1c(SCC2=C(C(=O)OCC)C(C)NC(=O)N2)nnc1C1CCCCC1 (stereo not shown) | 14.8 |
| CCN(Cc1ccccc1)S(=O)(=O)c1ccc(OC)c2ncccc12 | -4.51 |
| O=C(COc1ccc(Br)cc1)N1CCN(C2CCCC2)CC1 | -42.1 |
| C/C(=N\Nc1cc(C)nc(-c2ccccc2O)n1)c1ccccc1O | 17.1 |
| CCOC(=O)COc1ccc(S(=O)(=O)NCc2ccncc2)cc1 | 8.78 |
| O=C(O)c1cnc(-c2ccccc2)nc1Oc1ccccc1 | 6.11 |
| O=C1NCC(O)=C1C=NCCCO | 16.3 |
| CSc1nnc(C(C)(C)C)c(=O)n1/N=C/c1ccccc1O | 5.91 |
| CC(/C=N/NC(=O)c1nnn(-c2nonc2N)c1C)=C\c1ccccc1 | 12.2 |
| COc1ccc(C)cc1S(=O)(=O)N1c2ccccc2CC1C (stereo not shown) | -8.25 |
| COc1ccccc1CCNCc1cccc(C(F)(F)F)c1.O=C(O)C(=O)O | 12.3 |
| COc1ccc(/C=C(/NC(=O)c2ccccc2)C(=O)N2CCCC2)cc1 | 6.1 |
| COc1cccc(CSc2nc3ccccc3cc2C=O)c1 | 6.21 |
| COc1cccc(C2C(C#N)=C(N)N(N(C)C)C3=C2C(=O)CCC3)c1OC (stereo not shown) | 16.4 |
| CCC(C)c1ccc(NC(=O)C2CCN(c3ncccn3)CC2)cc1 (stereo not shown) | 13 |
| C/C(=N\NC(=O)c1ccncc1)c1cccc(NC(=O)c2ccc(C(C)(C)C)cc2)c1 | -9.64 |

| SMILES | hERG current change (%, negative = inhibition) at 1uM [%] |
| --- | --- |
| CC(C(=O)Nc1cccc(Br)c1)c1ccc([N+](=O)[O-])cc1 (stereo not shown) | 6.23 |
| Cc1ccc(NC(=O)COC(=O)CCc2c[nH]c3ccccc23)c(C)c1 | 7.61 |
| O=C(COc1ccc2c(-c3ccccc3)cc(=O)oc2c1)NC1CCS(=O)(=O)C1 (stereo not shown) | 10.9 |
| CCc1ccc2nc(SCC(=O)Nc3nnc(C)s3)c(C)cc2c1 | 11.5 |
| CC(=O)c1ccc(NC(=S)NC(=O)Cc2ccc(Cl)cc2)cc1 | 17.5 |
| CCN1C(=O)c2cccc3c(S(=O)(=O)NC(Cc4ccccc4)C(=O)O)ccc1c23 (stereo not shown) | 13.7 |
| O=C(CSc1nnc(SCc2ccccc2)s1)NNC(=S)Nc1ccccc1 | 5.03 |
| CC1Cc2ccccc2N1C(=O)CSc1nc2ccccc2s1 (stereo not shown) | 4.97 |
| Cc1occc1C(=O)N/N=C/c1cnn(C)c1C | -6.78 |
| O=C(CSc1ccc2ccccc2c1)Nc1ccc(S(=O)(=O)Nc2nccs2)cc1 | 10.8 |
| CCSc1nnc(N)s1 | 9.83 |
| COC(=O)CCC(=O)N(CCN(C(=O)CCC(=O)OC)c1ccccc1)c1ccccc1 | 12.8 |
| CC1(c2nnc(-c3ccncc3)o2)CC(c2ccc(Cl)cc2)=NO1 (stereo not shown) | -8.04 |
| O=C1Cc2ccccc2C(c2ccc(Cl)cc2)N1 (stereo not shown) | 4.56 |
| COc1cc(Cl)ccc1OCc1cc(C(=O)N2CCC(N(C)C)C2)no1 (stereo not shown) | 4.46 |
| COc1cc(NC(=O)CN2CCN(c3ccccc3F)CC2)c(C)cc1[N+](=O)[O-] | 17.4 |
| COc1cccc(NC(=O)COC(=O)CCCC2=NS(=O)(=O)c3ccccc3N2)c1 | 10.8 |
| CN(C)CCCN(C(=O)c1ccc([N+](=O)[O-])o1)c1nc2cc3c(cc2s1)OCO3.Cl | -2.9 |
| O=C(Cc1ccc([N+](=O)[O-])cc1)N1N=C(C2CC2)CC1(O)C(F)(F)F (stereo not shown) | -0.373 |
| O=C(O)CC1S/C(=N/N=C/c2ccc(-c3ccccc3[N+](=O)[O-])o2)NC1=O (stereo not shown) | 4.31 |
| CCCc1cc(C(=O)OC)c(NC(=O)c2cc(C)on2)s1 | -2.95 |
| Cc1nc(NC(=O)C2CCCCC2)sc1C | -8.47 |

| SMILES | hERG current change (%, negative = inhibition) at 1uM [%] |
| --- | --- |
| CN(C)c1ccc(C2Nc3ccccc3C(=O)N2CCCN2CCOCC2)cc1 (stereo not shown) | 7.31 |
| COc1ccc(S(=O)(=O)Cc2ccc(C(=O)NCc3ccccc3OC)o2)cc1 | -3.7 |
| COc1cccc(CNCc2ccccc2OC)c1.O=C(O)C(=O)O | 7.88 |
| O=C(NCc1ccccc1F)C1CCCN(C(=O)NC2CCCCC2)C1 (stereo not shown) | 1.92 |
| Cn1c(SCC(=O)c2ccccc2)ncc(C(=O)Nc2ccccc2)c1=O | 9.47 |
| O=C(O)C(Cc1c[nH]c2ccccc12)NS(=O)(=O)c1ccc2ccccc2c1 (stereo not shown) | 4.08 |
| CCn1c(Cc2ccccc2)nnc1SCC(=O)Nc1ccc(C)cc1 | 6.96 |
| CCCCOc1ccc(N=Nc2ccc(N)nc2N)cn1 | 7.91 |
| O=C(CCC(=O)N1CCN(C2CCCCC2)CC1)Nc1nnc(C(F)(F)F)s1 | 3.5 |
| O=C(O)CCSc1nnc(COc2cccc3cccnc23)n1-c1ccccc1 | 11.5 |
| CC(C)CCNC(=O)C1CCC(=O)N1C(C)C (stereo not shown) | 13.4 |
| COCCCNC(=S)N1CCN(S(C)(=O)=O)CC1 | 16.9 |
| O=C(Nc1ccccc1)c1ccc2c(c1)OCO2 | 9.2 |
| Brc1cccc(C=Nc2cccc3ncccc23)c1 | 12.4 |
| CCOC(=O)/C(C(N)=NCc1ccco1)=C(/O)c1ccccc1 | 4.18 |
| CC(C)n1c(CN(C)c2ccccc2)nc2ccccc21.Cl | 13.4 |
| CCOc1ccccc1NC(=O)CCN1CCN(S(=O)(=O)c2ccc(Br)cc2)CC1 | 6.86 |
| CC(C)[C@H](NC(=O)[C@@H]1Cc2c([nH]c3ccccc23)C2c3ccccc3C(=O)N21)C(=O)NCC1CCCO1 (stereo partly shown) | 9.87 |
| Cc1ccc2c(CC(=O)OCc3nc(N)nc(Nc4ccccc4C)n3)coc2c1 | 15.8 |
| CC(=O)N1CC(C)c2scc(C)[n+]2-c2ccccc21.[Cl-] (stereo not shown) | 6.58 |
| CCCOC(=O)C1C2C=CC(C3CC23)C1C(=O)OCC(=O)c1ccccc1 (stereo not shown) | 10.9 |
| Cc1[nH]n(-c2ccc([N+](=O)[O-])cc2)c(=O)c1/C=N/N1CCOCC1 | 0.312 |

| SMILES | hERG current change (%, negative = inhibition) at 1uM [%] |
| --- | --- |
| CCOC(=O)c1c[nH]c2c(C(=O)c3ccccc3)cc(Cl)cc2c1=O | 4.65 |
| CCc1ccc(-c2cc(C)no2)cc1S(=O)(=O)NCc1ccco1 | 7.6 |
| CC1(C)CC2CC(C)(CN2C(=O)C23CCC(C)(C(=O)O2)C3(C)C)C1 (stereo not shown) | 4.92 |
| CCOc1ccccc1N1CCN(Cc2ccc(OC)c(OC)c2OC)CC1 | -14.3 |
| O=C(CNC(=O)c1ccc(Cl)cc1Cl)OCn1nnc2ccccc2c1=O | 16.5 |
| Cc1ccc2nc(SCC(=O)NC(=O)NCc3ccco3)[nH]c2c1 | -0.35 |
| CC1(C)CC(=O)C(C=NCCN2CCN(C(=O)C34CC5CC(CC(C5)C3)C4)CC2)=C(O)C1 | 13.5 |
| Cc1nc(CSc2nnc3scc(-c4ccccc4)n23)cs1 | 13.5 |
| Cc1nonc1C(=O)N1CCCC(N2CCN(c3ccc(F)cc3)CC2)C1 (stereo not shown) | -17.7 |
| O=C(Nc1ccc([N+](=O)[O-])cc1)Nc1nc(-c2ccc(Cl)s2)cs1 | 9.34 |
| CCc1cc2c(=O)n(-c3ccccc3)cnc2s1 | 8.82 |
| O=C(NCC(c1ccco1)N1CCc2ccccc21)c1ccccc1Br (stereo not shown) | 2.86 |
| COc1ccc(OC)c(NC(=O)NNC(=O)COc2ccc(-c3ccccc3)cc2)c1 | 2.35 |
| Cc1ccc(/C=[N+](/C)[O-])cc1 | 11.9 |
| O=c1ccn(Cc2ccccc2Cl)cc1 | 15.4 |
| CC(C)CNC(=O)C1CCN(CC2CCCCC2)CC1.O=C(O)C(=O)O | 16.6 |
| CCc1nc(N2CCN(CC(=O)NCC3CCCO3)CC2)c(C#N)c2c1COC(C)(C)C2 (stereo not shown) | 2.32 |
| CC(C)(C)NC(=O)c1ccc2c(c1)N(CC(=O)N1CCN(c3ccccc3F)CC1)C(=O)C(C)(C)O2 | 2.25 |
| O=C(N=C1SC2CS(=O)(=O)CC2N1c1ccc(Cl)cc1)C1CCCO1 (stereo not shown) | 13 |
| Cc1cc(C(C)(C)CC(C)(C)C)ccc1OCCOCC[N+](C)(C)Cc1ccccc1.[Cl-] | -62 |
| COc1cccc(C2C(C#N)=C(N)SC(c3ccccc3)C2[N+](=O)[O-])c1 (stereo not shown) | 7.53 |
| O=C(NNc1nc2cc3c(cc2s1)OCO3)c1ccc(F)cc1 | -4.43 |
